Assay results as given in PubChem BioAssay AID651820 (National Center for Advancing Translational Sciences (NCATS), 2012).
“And” between values parts separate entries of the source, which are not always exact repeats. Equal entries are not always repeated. About 12,000 (3.5%) of roughly 340,000 compounds were called active. Inconclusive results, whose numbers are uncertain, are shown with a selection of clear calls. The call rests on the fitted dose curve; in most records, active means well fitted inhibition curve with a large enough effect; inconclusive means small, poorly fitted or top-dose-only effect, or another doubt; inactive means no such curve, though single readings can be large or run the other way. A potency beside an inconclusive call is a rough fit, not a confirmed value.

Assay: qHTS Assay for Inhibitors of Hepatitis C Virus (HCV)
Details: Huh7.5.1 HCVcc-Cre (HCVcc is cell-culture hepatitis C virus) infection, luciferase reporter, 44 h; activity change, negative = inhibition: at 41.8 µM (top of the series) unless noted
Procedure, shortened: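 1,000 cells/well; 4 h culture; + compound; + HCVcc-Cre (~0.5 moi); 44 h; luciferase substrate, RT 15 min; read 15 sec.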
On the % scale 0 is the no-effect control and ±100 the full control effect; potency means the concentration at half of the fitted maximal effect; tags describe the fitted curve by direction and shape.

| Compound | activity change, negative = inhibition | Potency |
| --- | --- | --- |
| Cc1ccc(N(C(=O)c2csnn2)C(C(=O)NC2CCCCC2)c2ccccn2)c(C)c1 (stereo not given) | inactive: -5.78% | – |
| CCc1ccc(C2c3[nH]c4ccccc4c3CCN2C(=O)CN2CCN(CC)CC2)cc1 (stereo not given) | – | inconclusive: 20 µM [inhibitor, single point] |
| CN1CCc2c(sc3nc(SCC(=O)N4CCOCC4)n(-c4ccc(Cl)cc4)c(=O)c23)C1 | – | inconclusive: 10 µM [inhibitor, partial curve] |
| O=C(CN1CCCCC1)Nc1nc(-c2ccccc2)cs1 | – | inconclusive: 25.1 µM [inhibitor, single point] |
| N#Cc1ccccc1NC(=O)c1ccc2c(Cl)c3c(nc2c1)CCCC3 | – | inconclusive: 31.6 µM [inhibitor, single point] |
| Cc1nn2c(N)c(-c3ccccc3)cnc2c1-c1ccc(Cl)cc1 | – | inconclusive: 22.4 µM [inhibitor, single point] |
| CCN1CCN(c2sc(S(C)(=O)=O)nc2S(=O)(=O)c2ccc(C)cc2)CC1 | – | inconclusive: 22.4 µM [inhibitor, single point] |
| COc1cc2c(cc1OC)[C@@H](NC(=O)CCC1CCCCC1)[C@H](O)C2 | – | inconclusive: 31.6 µM [inhibitor, partial curve, poor fit] |
| Nc1ccc(N2CCOCC2)c(S(=O)(=O)Nc2cc(Cl)ccc2Cl)c1 | inactive: 22.9% | – |
| O=C(CSc1nc2ccccc2s1)NCC1CCCO1 (stereo not given) | inactive: 22.2% | – |
| Cc1cccc(OCCCC(=O)NC(C)C)c1 | – | inconclusive: 5.62 µM [inhibitor, single point] |
| CC(C)CN1C(=O)C(=O)N(CC(=O)c2ccc3c(c2)CCCC3)C1=O | inactive: -10.3% | – |
| O=C(COc1ncnc2cc(Cl)ccc12)c1ccc2c(c1)OCCO2 | inactive: 12.7% | – |
| CCCc1nnc(NC(=O)CCC(=O)N2CCN(Cc3ccc(Cl)cc3)CC2)s1 | – | inconclusive: 22.4 µM [inhibitor, single point] |
| CCOc1ccc(C(=O)OCC(=O)NC2CCCCCCC2)cc1 | inactive: -22.4% | – |
| CC(C)CNS(=O)(=O)c1ccc(CCC(=O)NC2CCCCC2)cc1 | inactive: 3.61% | – |
| Cc1cc(=O)oc2cc(OCC(=O)NC3CCCC3)ccc12 | – | inconclusive: 0.708 µM [inhibitor, full curve, poor fit] |
| CN1CCC(Oc2ccc(Sc3ccccc3)cc2)CC1 | – | inconclusive: 3.16 µM [inhibitor, full curve] |
| CN(C)c1ccc(N=Nc2ccccc2C(=O)OCC(=O)N2CCCC2)cc1 | – | inconclusive: 10 µM [inhibitor, single point] |
| Cc1ccccc1-c1nc2sc3c(c2c(=O)o1)CCC3 | inactive: 23% | – |
| Cc1cccc(NC(=O)c2cc(S(=O)(=O)N3CCc4ccccc43)cn2C)c1 | inactive: 21.7% | – |
| O=C(Nc1nc(-c2ccccc2)cs1)c1cccc([N+](=O)[O-])c1 | – | active: 12.6 µM |
| CCCn1c(SCc2nc3ccccc3s2)n[nH]c1=O | inactive: -0.539% | – |
| Cc1ccc(Cn2cc(C(=O)c3ccc(F)cc3)c(=O)c3cc4c(cc32)OCCO4)cc1 | – | inconclusive: 2.24 µM [inhibitor, partial curve] |

| Compound | activity change, negative = inhibition | Potency |
| --- | --- | --- |
| O=C(Cc1ncc(C(F)(F)F)cc1Cl)N1CCN(c2cccc(Cl)c2)CC1 | – | inconclusive: 31.6 µM [inhibitor, single point] |
| CCC(C)c1ccc(NC(=O)c2cnn3c(C(F)F)cc(C)nc23)cc1 (stereo not given) | – | inconclusive: 10 µM [inhibitor, partial curve] |
| O=C(COC(=O)c1cccc(-n2cnnn2)c1)c1ccc(F)cc1 | inactive: 28% | – |
| O=c1cc(CS(=O)(=O)c2ccccc2)nc(-c2ccncc2)[nH]1 | inactive: 11.2% | – |
| O=C1C2C3C=CC(C3)C2C(=O)N1c1ccc(N2CCN(c3ccccn3)CC2)c([N+](=O)[O-])c1 (stereo not given) | – | active: 10 µM |
| O=C(Nc1cccc(S(=O)(=O)N2CCCC2)c1)c1cc(-c2ccccn2)nc2ccccc12 | – | inconclusive: 12.6 µM [inhibitor, partial curve] |
| Cc1noc(C)c1COc1ccccc1C(=O)N1CCN(c2cccc(Cl)c2)CC1 | – | inconclusive: 11.2 µM [inhibitor, single point] |
| CCOc1ccc(C(=O)Nc2nc(C)c(C(=O)OC)s2)cc1 | – | active: 17.8 µM |
| CC(C)N1CCN(Cc2ccc(-c3ccccc3)cc2)CC1CCO (stereo not given) | – | inconclusive: 11.2 µM [inhibitor, partial curve] |
| COc1ccc(S(=O)(=O)Nc2cc3c4c(oc3c3ccccc23)CC(C)(C)CC4=O)cc1 | – | inconclusive: 11.2 µM [inhibitor, partial curve] |
| CCn1cc(C(=O)C(F)(F)F)c2ccccc21 | – | inconclusive: 0.891 µM [inhibitor, full curve, poor fit] |
| O=C(Cn1cnc([N+](=O)[O-])c1)c1ccc(Cl)cc1 | inactive: -24.4% | – |
| CCN(Cc1ccc(OC)c(F)c1)C(=O)/C=C/c1ccc(S(=O)(=O)N2CCOCC2)cc1 | – | inconclusive: 10 µM [inhibitor, partial curve] |
| Cc1ccccc1-n1nc(C(=O)c2cccs2)cc(-c2nc3ccccc3[nH]2)c1=N | – | active: 10 µM |
| CC(=O)NCCNc1nc2c(-c3ccccc3)nnn2c2ccccc12 | – | inconclusive: 7.08 µM [inhibitor, partial curve] |
| C/C(=N\NC(=O)c1ccc(OC2CCCC2)cc1)c1ccc(C)s1 | inactive: -7.16% | – |
| COc1ccc(C(=O)CSc2nnc(CNc3ccc(F)cc3)o2)cc1 | – | inconclusive: 31.6 µM [inhibitor, single point] |
| CCOc1ccc(C(=O)c2ccc(OCC)c(N)c2)cc1N | – | inconclusive: 22.4 µM [inhibitor, single point] |
| Cc1cc(-c2csc(NC(=O)c3cccc(S(=O)(=O)N(C)C)c3)n2)c(C)n1-c1ccccc1 | – | inconclusive: 4.47 µM [inhibitor, partial curve] |
| N#Cc1cccc(C(=O)OCC(=O)NC(=O)NC2CCCCC2)c1 | inconclusive: -69.4% [inhibitor] | – |
| N=c1c(C(=O)NCc2ccc(F)cc2)cc2c(=O)n3ccccc3nc2n1CC1CCCO1 (stereo not given) | – | inconclusive: 5.62 µM [inhibitor, single point] |
| O=C(COC(=O)c1nc(Cl)c(Cl)c(Cl)c1Cl)NCc1ccccc1 | – | inconclusive: 31.6 µM [inhibitor, single point] |
| COc1ccccc1C1CC(c2ccco2)=NN1c1ccccc1 (stereo not given) | – | inconclusive: 31.6 µM [inhibitor, single point] |
| O=C(O)/C=C(\Oc1ccccc1)C1(O)CCCCC1 | inactive: 18% | – |

| Compound | activity change, negative = inhibition | Potency |
| --- | --- | --- |
| COc1ccccc1N1CCN(C(=O)c2ccc(NC(C)=O)cc2)CC1 | inactive: -5.64% | – |
| Cc1ccc(Cn2c(=O)c3c(nc4n3CCN4Cc3ccco3)n(C)c2=O)cc1 | – | inactive and inconclusive: 11.2 µM [inhibitor, partial curve] |
| Cc1cc(C)c2c(C)c(C(=O)NCc3ccncc3)oc2c1 | – | active: 2 µM |
| CCc1ccc(-n2c(C)cc(/C=N/NC(=O)c3ccncc3)c2C)cc1 | – | inconclusive: 12.6 µM [inhibitor, single point] |
| N#Cc1c(F)cccc1NCc1cccnc1 | – | inconclusive: 8.91 µM [inhibitor, partial curve] |
| Cc1cccc(C2=NN(c3ccc(Br)cc3)[C@@H](C(=O)N3CCOC3=O)[C@@H]2c2ccc([N+](=O)[O-])cc2)c1 | – | inconclusive: 31.6 µM [inhibitor, single point] |
| CCOCCCNC(=O)C(c1ccc(Cl)cc1)N(Cc1cccs1)C(=O)c1ccccn1 (stereo not given) | – | inconclusive: 10 µM [inhibitor, single point] |
| Cc1ccc(S(=O)(=O)ON2C(=O)c3cccc4cccc(c34)C2=O)cc1 | inactive: -1.61% | – |
| COc1ccc(NC(=O)CN(c2ccc([N+](=O)[O-])cc2)S(=O)(=O)c2ccccc2)c(OC)c1 | – | inconclusive: 28.2 µM [inhibitor, single point] |
| Cc1ccc(CNC(=O)CC(C)S(=O)(=O)c2ccc3c(c2)NC(=O)C(C)S3)cc1 (stereo not given) | – | inconclusive: 10 µM [inhibitor, partial curve] |
| O=C(NCCCCCCCCNC(=O)c1cccc2ccccc12)c1cccc2ccccc12 | – | inconclusive: 5.62 µM [inhibitor, single point] |
| COc1ccccc1CNC(=O)C(NC(=O)Nc1ccccc1)C(C)C (stereo not given) | inactive: 5.92% | – |
| Cc1ccc(C)c(OCCC(=O)OCC(=O)NC(=O)NCc2ccccc2)c1 | – | inconclusive: 31.6 µM [inhibitor, single point] |
| Cc1cc(C)c(-c2cc(NC(=O)COC(=O)c3ccc(CO)cc3)n(-c3ccccc3)n2)cc1C | – | inconclusive: 35.5 µM [inhibitor, partial curve, poor fit] |
| Cc1c(C(c2cccc(O)c2)c2c(C)n(C)n(-c3ccccc3)c2=O)c(=O)n(-c2ccccc2)n1C | – | inconclusive: 2.24 µM [inhibitor, full curve, poor fit] |
| Cc1cc(Br)ccc1OCCCCNCCO | – | active: 10 µM |
| COc1cc(-c2cc(OC)c(O)c(OC)c2)cc(OC)c1O | – | inconclusive: 11.2 µM [inhibitor, single point] |
| CCn1c(=O)c([N+](=O)[O-])c(NCCc2ccc(OC)c(OC)c2)c2ccccc21 | – | inconclusive: 14.1 µM [inhibitor, single point] |
| O=C(c1ccccc1)c1ccc(C(=O)N2CCN(c3ccc(F)cc3)CC2)o1 | – | inconclusive: 3.98 µM [inhibitor, partial curve] |
| O=S(=O)(c1ccc2nnn(O)c2c1)N1CCOCC1 | – | inconclusive: 3.16 µM [inhibitor, single point] |
| O=C(N/N=C/c1ccc(F)cc1)c1ccccc1 | inactive: 7.35% | – |
| C=CCn1c(SCC(C)=O)nc2sc3c(c2c1=O)CCC3 | – | inconclusive: 11.2 µM [inhibitor, partial curve] |
